Residue numbers refer to the chain shown, from its start. This is one part of the list.
T1: RBFOX1 RRM RbFoxmut (Fox-RRM*) (Homo sapiens, UniProt Q9NWB1 109-208, R118D;E147R;N151S;E152T)
T1 sequence: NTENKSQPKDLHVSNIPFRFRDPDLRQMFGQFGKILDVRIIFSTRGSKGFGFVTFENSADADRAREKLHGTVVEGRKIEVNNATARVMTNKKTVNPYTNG

B1: GUACCGA (DNA:RNA)
RNA: GGGAGACCGGAAUUCAGAUUGUCCGUACCGAUUAAAUCCCGUCGUAGCCACCA
DNA 1: CAATCTGAATTCCGGTCTCCC
DNA 2: TGGTGGCTACGACGGGATT
B2: CGAUGCG (DNA:RNA)
RNA: B1 RNA with G25C, U26G, C28U, C29G, G30C, A31G
DNA 1: CAATCTGAATTCCGGTCTCCC
DNA 2: TGGTGGCTACGACGGGATT
B3: ACUCAGG (DNA:RNA)
RNA: B1 RNA with G25A, U26C, A27U, C29A, A31G
DNA 1: CAATCTGAATTCCGGTCTCCC
DNA 2: TGGTGGCTACGACGGGATT
B4: GUUCACU (DNA:RNA)
RNA: B1 RNA with A27U, C29A, G30C, A31U
DNA 1: CAATCTGAATTCCGGTCTCCC
DNA 2: TGGTGGCTACGACGGGATT
B5: AUUAGCA (DNA:RNA)
RNA: B1 RNA with G25A, A27U, C28A, C29G, G30C
DNA 1: CAATCTGAATTCCGGTCTCCC
DNA 2: TGGTGGCTACGACGGGATT
B6: UCCAGAC (DNA:RNA)
RNA: GGGAGACCGGAAUUCAGAUUGUCCUCCAGACUUAAAUCCCGUCGUAGCCACCA
DNA 1: CAATCTGAATTCCGGTCTCCC
DNA 2: TGGTGGCTACGACGGGATT
B7: CUAAAAG (DNA:RNA)
RNA: B1 RNA with G25C, C28A, C29A, G30A, A31G
DNA 1: CAATCTGAATTCCGGTCTCCC
DNA 2: TGGTGGCTACGACGGGATT
B8: ACGGAAA (DNA:RNA)
RNA: B6 RNA with U25A, C27G, A28G, G29A, C31A
DNA 1: CAATCTGAATTCCGGTCTCCC
DNA 2: TGGTGGCTACGACGGGATT
B9: GUCGUAC (DNA:RNA)
RNA: B6 RNA with U25G, C26U, A28G, G29U
DNA 1: CAATCTGAATTCCGGTCTCCC
DNA 2: TGGTGGCTACGACGGGATT
B10: CAGAUGU (DNA:RNA)
RNA: B1 RNA with G25C, U26A, A27G, C28A, C29U, A31U
DNA 1: CAATCTGAATTCCGGTCTCCC
DNA 2: TGGTGGCTACGACGGGATT
B11: AAGCACG (DNA:RNA)
RNA: B1 RNA with G25A, U26A, A27G, C29A, G30C, A31G
DNA 1: CAATCTGAATTCCGGTCTCCC
DNA 2: TGGTGGCTACGACGGGATT
B12: CGUCAUC (DNA:RNA)
RNA: B1 RNA with G25C, U26G, A27U, C29A, G30U, A31C
DNA 1: CAATCTGAATTCCGGTCTCCC
DNA 2: TGGTGGCTACGACGGGATT
B13: ACAGGGU (DNA:RNA)
RNA: B1 RNA with G25A, U26C, C28G, C29G, A31U
DNA 1: CAATCTGAATTCCGGTCTCCC
DNA 2: TGGTGGCTACGACGGGATT
B14: UUAUUAC (DNA:RNA)
RNA: B6 RNA with C26U, C27A, A28U, G29U
DNA 1: CAATCTGAATTCCGGTCTCCC
DNA 2: TGGTGGCTACGACGGGATT
B15: ACAUAGU (DNA:RNA)
RNA: B1 RNA with G25A, U26C, C28U, C29A, A31U
DNA 1: CAATCTGAATTCCGGTCTCCC
DNA 2: TGGTGGCTACGACGGGATT
B16: ACUAUGC (DNA:RNA)
RNA: B6 RNA with U25A, C27U, G29U, A30G
DNA 1: CAATCTGAATTCCGGTCTCCC
DNA 2: TGGTGGCTACGACGGGATT
B17: GGGGAAC (DNA:RNA)
RNA: B6 RNA with U25G, C26G, C27G, A28G, G29A
DNA 1: CAATCTGAATTCCGGTCTCCC
DNA 2: TGGTGGCTACGACGGGATT
B18: CACCCGA (DNA:RNA)
RNA: B1 RNA with G25C, U26A, A27C
DNA 1: CAATCTGAATTCCGGTCTCCC
DNA 2: TGGTGGCTACGACGGGATT
B19: UACCUUC (DNA:RNA)
RNA: B6 RNA with C26A, A28C, G29U, A30U
DNA 1: CAATCTGAATTCCGGTCTCCC
DNA 2: TGGTGGCTACGACGGGATT
B20: CUUGGCA (DNA:RNA)
RNA: B1 RNA with G25C, A27U, C28G, C29G, G30C
DNA 1: CAATCTGAATTCCGGTCTCCC
DNA 2: TGGTGGCTACGACGGGATT
B21: GGUGCCA (DNA:RNA)
RNA: B1 RNA with U26G, A27U, C28G, G30C
DNA 1: CAATCTGAATTCCGGTCTCCC
DNA 2: TGGTGGCTACGACGGGATT
B22: AUCUGGA (DNA:RNA)
RNA: B1 RNA with G25A, A27C, C28U, C29G
DNA 1: CAATCTGAATTCCGGTCTCCC
DNA 2: TGGTGGCTACGACGGGATT
B23: CCGGGCA (DNA:RNA)
RNA: B6 RNA with U25C, C27G, A28G, A30C, C31A
DNA 1: CAATCTGAATTCCGGTCTCCC
DNA 2: TGGTGGCTACGACGGGATT
B24: CAUAAGC (DNA:RNA)
RNA: B6 RNA with U25C, C26A, C27U, G29A, A30G
DNA 1: CAATCTGAATTCCGGTCTCCC
DNA 2: TGGTGGCTACGACGGGATT
B25: UACACGU (DNA:RNA)
RNA: B6 RNA with C26A, G29C, A30G, C31U
DNA 1: CAATCTGAATTCCGGTCTCCC
DNA 2: TGGTGGCTACGACGGGATT
B26: CUGCUGA (DNA:RNA)
RNA: B1 RNA with G25C, A27G, C29U
DNA 1: CAATCTGAATTCCGGTCTCCC
DNA 2: TGGTGGCTACGACGGGATT
B27: UACGAGU (DNA:RNA)
RNA: B6 RNA with C26A, A28G, G29A, A30G, C31U
DNA 1: CAATCTGAATTCCGGTCTCCC
DNA 2: TGGTGGCTACGACGGGATT
B28: GGCCUGU (DNA:RNA)
RNA: B1 RNA with U26G, A27C, C29U, A31U
DNA 1: CAATCTGAATTCCGGTCTCCC
DNA 2: TGGTGGCTACGACGGGATT
B29: CAUCGUA (DNA:RNA)
RNA: B1 RNA with G25C, U26A, A27U, C29G, G30U
DNA 1: CAATCTGAATTCCGGTCTCCC
DNA 2: TGGTGGCTACGACGGGATT
B30: GUUGGCC (DNA:RNA)
RNA: B1 RNA with A27U, C28G, C29G, G30C, A31C
DNA 1: CAATCTGAATTCCGGTCTCCC
DNA 2: TGGTGGCTACGACGGGATT
B31: CCAUAGG (DNA:RNA)
RNA: B1 RNA with G25C, U26C, C28U, C29A, A31G
DNA 1: CAATCTGAATTCCGGTCTCCC
DNA 2: TGGTGGCTACGACGGGATT

These binders were tested against T1, RBFOX1 RRM RbFoxmut (Fox-RRM*) (assay: EMSA; HiTS-Eq, 1 nM pool, 10 min; buffer printed only for the single-RNA assays: 10 mM Tris pH 7.5, 150 mM NaCl, 3.4 mM EDTA, 0.001% NP-40, 30 C). Details: tags: His6 N-terminal (pET28a); label: 5' 32P.
Procedure, shortened: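 Purified wild-type or mutant RbFox RRM at increasing concentrations was equilibrated with 1 nM of 5′-radiolabelled RNA carrying 7 randomized nucleotides for 10 min in 50 µL. Unbound RNA was separated by 8% native PAGE and sequenced. Relative association constants came from read-count changes of each RNA species compared with the control reaction, normalised to the cognate motif.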

Binder	binding signal
B1	0.103 KA relative to UGCAUGU
B2	0.113 KA relative to UGCAUGU
B3	0.104 KA relative to UGCAUGU
B4	0.0707 KA relative to UGCAUGU
B5	0.142 KA relative to UGCAUGU
B6	0.0633 KA relative to UGCAUGU
B7	0.067 KA relative to UGCAUGU
B8	0.0755 KA relative to UGCAUGU
B9	0.123 KA relative to UGCAUGU
B10	0.116 KA relative to UGCAUGU
B11	0.2 KA relative to UGCAUGU
B12	0.0997 KA relative to UGCAUGU
B13	0.097 KA relative to UGCAUGU
B14	0.139 KA relative to UGCAUGU
B15	0.129 KA relative to UGCAUGU
B16	0.131 KA relative to UGCAUGU

Binder	binding signal
B17	0.0664 KA relative to UGCAUGU
B18	0.112 KA relative to UGCAUGU
B19	0.0485 KA relative to UGCAUGU
B20	0.137 KA relative to UGCAUGU
B21	0.0836 KA relative to UGCAUGU
B22	0.0445 KA relative to UGCAUGU
B23	0.0982 KA relative to UGCAUGU
B24	0.0858 KA relative to UGCAUGU
B25	0.0731 KA relative to UGCAUGU
B26	0.112 KA relative to UGCAUGU
B27	0.0976 KA relative to UGCAUGU
B28	0.179 KA relative to UGCAUGU
B29	0.15 KA relative to UGCAUGU
B30	0.254 KA relative to UGCAUGU
B31	0.0801 KA relative to UGCAUGU

Source: publication PMC9911399, “Two distinct binding modes provide the RNA-binding protein RbFox with extraordinary sequence specificity”
